# Measured values reported in PubChem BioAssay AID588453 (National Center for Advancing Translational Sciences (NCATS), 2011).
# About 4,000 (1%) of roughly 390,000 compounds were called active. This list was built around the results that the source calls inconclusive (neither active nor inactive); the mix of calls is not that of the screen. Calls follow the shape of the dose curve; as a rule, active = well fitted inhibition curve with a large enough effect; inconclusive = small, poorly fitted or top-dose-only effect; inactive = no such curve, though single readings can be large or run the other way. Potencies of inconclusive entries are doubtful fits and often do not repeat.
# Biological target: Thioredoxin reductase 1, cytoplasmic (Rattus norvegicus) (UniProt O89049)
# Sequence of UniProt O89049 (O89049 whole entry, looked up): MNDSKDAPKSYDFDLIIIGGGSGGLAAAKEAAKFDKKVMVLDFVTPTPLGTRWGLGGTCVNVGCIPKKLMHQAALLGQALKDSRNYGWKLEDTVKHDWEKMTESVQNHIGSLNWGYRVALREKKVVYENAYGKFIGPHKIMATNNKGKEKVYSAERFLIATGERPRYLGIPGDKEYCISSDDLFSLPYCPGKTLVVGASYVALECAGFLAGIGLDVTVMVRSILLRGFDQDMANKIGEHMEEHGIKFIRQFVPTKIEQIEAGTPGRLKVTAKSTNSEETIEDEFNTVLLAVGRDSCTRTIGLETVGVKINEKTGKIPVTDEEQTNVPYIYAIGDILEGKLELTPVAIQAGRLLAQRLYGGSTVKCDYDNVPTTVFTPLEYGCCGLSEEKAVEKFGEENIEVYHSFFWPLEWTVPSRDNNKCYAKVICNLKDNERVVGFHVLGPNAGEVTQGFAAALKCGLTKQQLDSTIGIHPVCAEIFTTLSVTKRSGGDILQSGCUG
# Assay: qHTS Assay for Inhibitors of Mammalian Selenoprotein Thioredoxin Reductase 1 (TrxR1): qHTS; also: nearly all actives have a fitted effect of over 65% in size
# Conditions: recombinant rTrxR1, NADPH fluorescence consumption, selenite substrate; series mostly up to 114 µM; activity change, negative = inhibition: at the top concentration
# From the text: The selenoprotein thioredoxin reductase (TrxR; EC 1.8.1.9) is a FAD containing homodimeric pyridine nucleotide-disulfide oxidoreductase with many cellular roles. Together with NADPH and its prime substrate thioredoxin (Trx), the enzyme forms the core of the Trx system. The mammalian Trx system exerts a wide spectrum of functions including redox regulation, antioxidant defense, regulation of transcription factors as well as support of cell growth and replication. Many of these functions involve the reduction of Trx, which may subsequently reduce a number of different substrates including ribonucleotide reductase, peroxiredoxins or NFkB. Mammalian TrxR itself also has a broad substrate specificity, reducing both protein and non-protein substrates, including low molecular weight compounds such as dehydroascorbate, lipoic acid, ubiquinone, and juglone. In addition, several drugs in clinical use for anticancer treatment are indeed known to target TrxR1.
# This BioAssay is a validation of an NADPH fluorescence-based, dual-purpose qHTS rTrxR1 assay designed to find potential inhibitors and substrates of rTrxR1. For this particular BioAssay, actives are potential inhibitors. See related BioAssay for substrate data deposition.
# NIH Molecular Libraries Probe Production Network [MLPCN]
# NIH Chemical Genomics Center [NCGC]
# Assay Provider: Elias Arner, Karolinska Institute
# Assay protocol: 2 uL of reagents (buffer in column 4 as negative control and 90 nM rTrxR1 in columns 1-3 and 5-48) were dispensed into Greiner black solid-bottom 1,536-well assay plates, followed by 1 uL of NADPH (400 uM final concentration) to each well. The plates were centrifuged at 1000 rpm for 15 seconds and subsequently incubated for 5 min at room temperature (~22 deg C) to allow for rTrxR1 reduction. Compounds (23 nL) were then transferred via Kalypsys pin tool equipped with 1536-pin array (10 nL slotted pins, V&P Scientific, San Diego, CA). In addition, a duplicate 2-fold serial dilution of the control compounds auranofin, a known gold-based TrxR1 inhibitor, and juglone (5-hydroxy-1,4-naphthoquinone), a natural TrxR1 substrate, were pin-transferred to columns 2 and 3, respectively. After incubation for 15 min at room temperature (~22 deg C), 1 uL of selenite (400 uM final concentration) were dispensed to each well. The plate was immediately transferred to a ViewLux high-throughput CCD imager (PerkinElmer), wherein kinetic measurements of NADPH fluorescence (Ex 340 nm, Em 450 nm) were acquired (8 minute kinetic read, see Table 1). Read 1 was utilized to assess the capacity of a compound to serve as an rTrxR1 substrate, i.e. a decrease in NADPH fluorescence compared to the no-compound background is an indication of a substrate behavior for that particular compound. For inhibitory activity of a compound, delta values, computed as the difference in fluorescence intensity between the first and last reads of an 8-minute time kinetic window, were used. All reagents were diluted in an assay buffer consisting of 50 mM Tris-HCl, pH 7.5, 2 mM EDTA, and 0.01% Tween-20.
# Throughout the screen, reagent bottle and all liquid lines were made light-tight to minimize reagent degradation. All screening operations were performed on a fully integrated robotic system (Kalypsys, San Diego, CA) containing one RX-130 and two RX-90 anthropomorphic robotic arms (Staubli, Duncan, SC). Library plates were screened starting from the lowest and proceeding to the highest concentration, and a 'double-pinning' step of the highest concentration was required to access higher concentrations of compounds. Vehicle-only plates, with DMSO being pin-transferred to the columns 5-48, were inserted uniformly at the beginning and the end of each library in order to monitor and record any shifts in the background, which can be affected by reagent dispensers or loss in enzyme activity over time. […]
# % is scaled to controls: 0 for no effect and ±100 for the full control effect; potency is read from the fitted curve at half-maximal effect; tags tell the direction and shape of the fitted curve.
Structure (SMILES),"activity change, negative = inhibition",Potency
CCOc1ccc2nc3ccc4[nH]onc4c3c2c1,inactive: -1.54%,–
CC(=O)c1ccccc1C(=O)N1CCCC(CCC(=O)N2CCN(c3ccccn3)CC2)C1 (stereo not given),–,"inconclusive: 79.4 µM [inhibitor, single point]"
COCC1CCCN(C(=O)c2ccc3oc(CCCc4ccccc4)nc3c2)C1 (stereo not given),–,"inconclusive: 79.4 µM [inhibitor, partial curve]"
CCCc1nc([N+](=O)[O-])c(S(=O)(=O)c2ccccc2)n1CC(C)C,–,active: 2.82 µM
CCOC(=O)c1noc2ncnc(Nc3ccc(F)cc3F)c12,inactive: 8.1% [at 57.1 µM],–
CC(C)C(NC(=O)OCc1ccccc1)C(=O)OCC(=O)NCc1ccco1 (stereo not given),–,"inconclusive: 31.6 µM [inhibitor, partial curve, poor fit]"
COc1cc(CN2CCNC(=O)C2CC(=O)N2CCCN(C(C)=O)CC2)cc(OC)c1 (stereo not given),–,"inconclusive: 70.8 µM [inhibitor, partial curve]"
COc1ccc(-c2cc3nc4n(c(=O)c3s2)CCC4)cc1,inactive: -35.8%,–
O=C(NC(=S)NC1CCCCC1)c1ccc(Cl)cc1,–,"inconclusive: 70.8 µM [inhibitor, partial curve]"
Cc1[nH]n(-c2ccccc2)c(=O)c1N=Nc1cccc(S(=O)(=O)N2CCOCC2)c1,inactive: 3.28%,–
COc1ccc(F)cc1CSc1nnnn1-c1ccc(O)cc1,inactive: 11.5%,–
O=C(CCN1CCN(c2ccccc2)CC1)N/N=C/c1ccc(O)c(O)c1O,inactive: -10.6%,–
Cc1ccc2cc(C#N)c(N3CCCN(C(=S)NCCCN(C)C)CC3)nc2c1,–,"inconclusive: 70.8 µM [inhibitor, partial curve]"
Cc1cccc(NC(=O)c2nc(S(C)(=O)=O)ncc2Cl)c1,–,active: 7.08 µM
O=C(NNC(=S)NC(=O)c1cccnc1)c1ccc(Cl)cc1,–,"inconclusive: 44.7 µM [inhibitor, partial curve]"
Oc1ccccc1-c1cc(-c2cccc(F)c2)n[nH]1,–,"inconclusive: 8.91 µM [inhibitor, single point]"
Cc1ccc(N2CCN(C(=O)c3ccccc3NC(=O)c3ccccc3C(=O)O)CC2)cc1,–,"inconclusive: 44.7 µM [inhibitor, single point]"
Cc1cccnc1Nc1nc(-c2ccc(O)cc2O)cs1,inactive: 2.9% [at 57.1 µM],–
O=c1c2ccccc2nc2ccc(NCc3ccco3)nn12,–,"inconclusive: 56.2 µM [inhibitor, partial curve, poor fit]"
CNc1ccc(Br)cc(C(=O)/C=C/c2ccc3c(c2)OCO3)c1=O,–,active: 14.1 µM
O=S1(=O)C2CC3C=CC2(O3)C(O)C(Cc2ccccc2)N1Cc1cccc(C(F)(F)F)c1 (stereo not given),–,"inconclusive: 70.8 µM [inhibitor, partial curve, poor fit]"
O=C1C=CC(O)(c2cc(=O)c3c(O)cc(O)cc3o2)C=C1,–,"inconclusive: 70.8 µM [inhibitor, partial curve, poor fit]"

Structure (SMILES),"activity change, negative = inhibition",Potency
COc1ccc(C(C(=O)NC2CCCCC2)N(C(=O)CCl)c2cccc(Cl)c2)cc1 (stereo not given),–,"inconclusive: 12.6 µM [inhibitor, partial curve]"
O=C(NCCc1ccccc1)/C(=C/c1ccco1)c1ccccc1,–,"inconclusive: 35.5 µM [inhibitor, single point]"
Cc1ccc(-n2c(O)c(C=Nc3ccccc3-c3n[nH]c(=S)[nH]c3=O)c3ccccc3c2=O)c(C)c1,–,"inconclusive: 56.2 µM [inhibitor, partial curve, poor fit]"
CCCCC(=O)Nc1ccc(C(=O)NNC(=O)CCc2ccccc2)cc1,inactive: 28.6%,–
CN1CCc2c(cc(O)c(O)c2Cl)C(c2cccc(Cl)c2)C1 (stereo not given),–,"inconclusive: 5.32 µM [inhibitor, partial curve, poor fit]"
Cc1ccc(N2C(=O)[C@@H]3[C@H](C2=O)C2c4ccccc4C=CN2[C@@H]3C(=O)c2ccco2)cc1 (stereo not given in full),–,"inconclusive: 56.2 µM [inhibitor, partial curve]"
CCCS(=O)(=O)c1ncc(Cl)c(C(=O)Nc2ccc(S(=O)(=O)Nc3ncccn3)cc2)n1,–,active: 44.7 µM
COC(=O)c1cc2occc2n1CC(=O)Nc1cc(OC)cc(OC)c1,–,"inconclusive: 56.2 µM [inhibitor, partial curve, poor fit]"
COc1ccccc1C(=O)NC(=O)COC(=O)/C(=C/c1ccccc1)NC(C)=O,–,"inconclusive: 56.2 µM [inhibitor, partial curve]"
CC(=O)Oc1ccccc1C(=O)N(C1CCCCC1)C1CCCCC1,inactive: 18.3%,–
N#CC1(C#N)CC(C=O)=C(N)C1(C#N)CC(=O)c1ccc(F)cc1 (stereo not given),–,"inconclusive: 28.2 µM [inhibitor, single point]"
Cc1nc2sc(C(c3ccco3)N3CCN(c4cccc(Cl)c4)CC3)c(O)n2n1 (stereo not given),–,"inconclusive: 12.6 µM [inhibitor, full curve]"
NC(=O)CC[C@@H]1NC(=O)[C@@H]2CCCN2C(=O)c2cc([N+](=O)[O-])cc(F)c2NCCC[C@@H](C(N)=O)NC1=O,–,active: 12.6 µM
O=c1[nH]ncc(N/N=C\c2cccs2)c1Cl,–,"inconclusive: 89.1 µM [inhibitor, partial curve]"
Cc1ccc(Cn2ccsc2=NC(=O)CCl)cc1,–,"inconclusive: 15.8 µM [inhibitor, full curve]"
CCCN1CCC(=O)N(CCSc2ccccc2)CC1,–,"inconclusive: 17.8 µM [inhibitor, partial curve]"
CCOC(=O)C1=C(CSc2nc(-c3ccncc3)ccc2C#N)OC(N)=C(C#N)C1c1cccnc1 (stereo not given),–,"inconclusive: 11.2 µM [inhibitor, full curve]"
CC(=O)Oc1ccc(C(=O)[C@H]2[C@H]3C(=O)N(c4cccc5ccccc45)C(=O)[C@H]3[C@@H]3C=CC=NN32)cc1,–,"inconclusive: 56.2 µM [inhibitor, partial curve, poor fit]"
O=C(c1ccc(F)cc1)N1CCN(CCc2ccncc2)CC1,–,"inconclusive: 14.1 µM [inhibitor, full curve]"
O=C(c1cccn1-c1nnc(N2CCCC2)s1)N1CCN(c2ccc(F)cc2)CC1,inactive: 12.2% [at 57.1 µM],–
Cc1onc(-c2ccccc2)c1C(=O)NNC(=S)NC(=O)c1ccc(Cl)cc1Cl,–,"inconclusive: 50.1 µM [inhibitor, partial curve]"
C/C(=N\NC(=O)c1ccc(N(C)C)cc1)c1cccnc1,–,"inconclusive: 79.4 µM [inhibitor, single point]"

Structure (SMILES),"activity change, negative = inhibition",Potency
CCN(CC)C(=O)OCCc1cc2ccccc2c(=O)o1,–,active: 39.8 µM
CC1CCCN(CCC(=O)c2ccccc2)C1 (stereo not given),–,"inconclusive: 0.355 µM [inhibitor, partial curve, poor fit]"
CC1CN(c2ccc(Oc3ccccc3)cc2)c2nc3c(c(=O)[nH]c(=O)n3C)n2C1 (stereo not given),inactive: 17.2% [at 57.1 µM],–
Clc1cccc[n+]1CCc1ccccc1,–,active: 44.7 µM
CC(C)C[C@H](N)c1cn([C@@H](Cc2cc3ccccc3[nH]2)C(=O)N2CCNCC2)nn1,–,"inconclusive: 56.2 µM [inhibitor, partial curve, poor fit]"
CC(=O)c1ccc(NC(=O)CSc2ccc(-c3ccco3)nn2)cc1,–,"inconclusive: 44.7 µM [inhibitor, partial curve, poor fit]"
COc1ccc(C2=CC(c3ccc(OC)c(OC)c3)n3nnnc3N2)c(OC)c1 (stereo not given),–,"inconclusive: 12.6 µM [inhibitor, partial curve]"
CN(C)CCN(C(=O)c1ccc(N2C(=O)CCC2=O)cc1)c1nc2cc3c(cc2s1)OCO3,–,"inconclusive: 39.8 µM [inhibitor, full curve, poor fit]"
COc1ccc(OC)c(-c2cc(C(=O)N/N=C/c3cc(OC)c(OC)cc3OC)c3ccccc3n2)c1,–,"inconclusive: 89.1 µM [inhibitor, single point]"
CN(C)S(=O)(=O)c1cccc(C(=O)C2=C3SC=C(c4ccccc4)N3CC2)c1,–,"inconclusive: 3.16 µM [inhibitor, full curve, poor fit]"
C=C1C(=O)[C@@]23[C@H](O)C[C@@H]4C(C)(C)CC[C@H](O)[C@]4(C)[C@@H]2C[C@H](O)[C@@H]1[C@H]3O,–,active: 15.8 µM
Cc1ccc(NC(=O)CCCN2C(=O)/C(=C/C=C/c3ccccc3)SC2=S)cc1,–,"inconclusive: 56.2 µM [inhibitor, single point]"
O=[N+]([O-])c1ccc(N/N=C/c2cccc(O)c2O)c(S(=O)(=O)N2CCOCC2)c1,–,"inconclusive: 15.8 µM [inhibitor, partial curve, poor fit]"
COC(=O)/C=c1\[nH]c2nnc(C)n2c1=O,–,"inconclusive: 50.1 µM [inhibitor, partial curve]"
CCOC(=O)c1cc2c(=O)n3ccccc3nc2n(Cc2ccco2)c1=NC(=O)c1ccc(OC)cc1,–,"inconclusive: 3.55 µM [inhibitor, full curve, poor fit]"
COc1cc(NC(=O)Cn2c(=O)n(-c3ccccc3)c(=O)c3c4c(sc32)CCCC4)cc(OC)c1,inactive: 17.5%,–
Cc1nc2sc(C(c3ccco3)N3CCN(C(c4ccccc4)c4ccccc4)CC3)c(O)n2n1 (stereo not given),–,"inconclusive: 10 µM [inhibitor, partial curve]"
COc1ccc(C/C(N)=N/OC(=O)COc2ccccc2C)cc1,inactive: 9.4%,–
COc1ccc(NC(=O)c2ccc(=O)oc2)cc1,–,"inconclusive: 31.6 µM [inhibitor, partial curve]"
COc1ccc(OCCCC(=O)OC(C)C(=O)Nc2ccc(C)cc2)cc1 (stereo not given),inactive: 10.9%,–
Cc1cccc(-n2cnc3c(c2=O)c2nc4ccccc4nc2n3Cc2ccco2)c1,–,"inconclusive: 17.8 µM [inhibitor, partial curve]"
